Reference: PubChem BioAssay AID504706 (National Center for Advancing Translational Sciences (NCATS), 2011)
The campaign covered roughly 320,000 compounds. About 200 (0.062%) were called active. This list was built around the results that the source calls inconclusive (neither active nor inactive); the mix of calls is not that of the screen. The call rests on the fitted dose curve; in most records, active means well fitted activation curve with a large enough effect; inconclusive means small, poorly fitted or top-dose-only effect; inactive means no such curve, though single readings can be large or run the other way. No potency is given beside an inconclusive call; the fits are too rough.

Assay: qHTS assay for re-activators of p53 using a Luc reporter; further: nearly all actives have a fitted effect of over 45% in size; on activity change, positive = activation: % of control where 0% means no effect
Conditions: H1299 p53-A138V BP100-luciferase reporter, luminescence, 24 h; series mostly up to 92.2 µM; activity change, positive = activation: at the top concentration
How it was run: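 H1299 (p53-null), stable ts p53-A138V + BP100-Luc; 1000 cells/well, Opti-MEM/10% FBS; cpd 4 pt, 1:5; 24 h, 37 deg C, 5% CO2; detection reagent 10 min RT; luminescence.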
Potency means the concentration at half of the fitted maximal effect; tags describe the fitted curve by direction and shape.

Compound | activity change, positive = activation | Potency
CC(OC(=O)c1cccc(-n2cnnn2)c1)C(=O)Nc1ccc(F)cc1 (configuration not stated) | inactive: -7.55% | 
Cc1ccc(C(=O)c2cc3ccccc3o2)cc1C |  | inconclusive [activator, full curve, poor fit]
S=c1[nH]nc(-c2cccnc2)n1C1CCCCC1 | inactive: 23.3% | 
CCCn1nc(C(=O)NCC2COc3ccccc3O2)c2ccccc2c1=O (configuration not stated) | inactive: -6.85% | 
CN(C)c1ccc(NC(=S)NC23CC4CC(CC(C4)C2)C3)cc1 |  | inconclusive [activator, full curve, poor fit]
CCOc1ccc(C2=CC(=O)C[C@H](c3ccc(OC)cc3)C2)cc1 |  | inconclusive [activator, full curve, poor fit]
COc1ccc(-c2nnc(SCC(=O)OC3CCCCC3)o2)cc1OC | inactive: 5.91% | 
Cc1ccc(C2CCN(C(=S)Nc3cccc(C)c3)C2)cc1 (configuration not stated) |  | inconclusive [activator, partial curve, poor fit]
Cc1[nH]c2ccccc2c(=O)c1CN(C)Cc1ccccc1 |  | inconclusive [activator, single point]
Cc1ccc(OCc2cc(C(=O)N3CCC(C(O)C(C)C)CC3)no2)cc1C (configuration not stated) |  | inconclusive [activator, partial curve, poor fit]
O=C(Nc1ccccc1F)c1cc2nc(C(F)F)cc(C(F)F)n2n1 |  | inconclusive [activator, partial curve, poor fit]
COc1ccc(/C=C/C(=O)NCCSCc2ccco2)cc1 |  | inconclusive [activator, single point]
COc1cccc(Nc2nc(C)nc3c2oc2ccccc23)c1 | inactive: -1.58% | 
CC(C)CNC(=O)COC(=O)c1cc(Cl)cc(Cl)c1N | inactive: -2.26% | 
COc1ccc(S(=O)(=O)N2CCCC(C(=O)Nc3ccc4c(c3)OCCO4)C2)cc1 (configuration not stated) |  | inconclusive [activator, single point]
COc1cccc(NC(=O)Nc2ccc3c(c2)OCO3)c1 |  | inconclusive [activator, partial curve, poor fit]
Cc1nc(SCC(=O)Nc2ccc(CN3CCCC3)cc2)c2c(C)c(C)sc2n1 |  | inconclusive [activator, single point]
O=c1cc(C(F)(F)F)nc(SC/C=C/c2ccccc2)[nH]1 |  | inconclusive [activator, single point]
COc1ccccc1NC(=O)CSc1nnc(-c2ccccn2)o1 |  | inconclusive [activator, full curve, poor fit]
CCCN1C2CCCC1CC(NC(=O)NC1CCCCC1)C2 (configuration not stated) |  | inconclusive [activator, partial curve, poor fit]
COc1ccc(-c2csc(Nc3ccc(S(=O)(=O)Nc4cc(OC)nc(OC)n4)cc3)n2)cc1 |  | inconclusive [activator, full curve, poor fit]
C[n+]1cc[nH]c1SCC(=O)c1ccccc1 |  | inconclusive [activator, single point]
CCCSC1=NN2CCCC(=O)N=C2S1 |  | inconclusive [activator, partial curve]

Compound | activity change, positive = activation | Potency
COc1cccc(C2=CC(=O)C[C@H](c3ccc(Cl)cc3)C2)c1OC | inactive: -14.3% | 
O=C(CSc1ccccc1)Nc1nc2ccccc2[nH]1 |  | inconclusive [activator, partial curve, poor fit]
N/C(=N\c1nc2ccccc2o1)NC(=O)c1ccccc1F |  | inconclusive [activator, full curve, poor fit]
COc1ccc(-c2nnc(SCC(=O)Nc3cc(F)ccc3C)o2)cc1 |  | inconclusive [activator, partial curve, poor fit]
Cc1cccc(C(=O)c2c(N)sc3c2CCC(C)C3)c1 (configuration not stated) |  | inconclusive [activator, partial curve, poor fit]
CC1=Nn2c(nnc2-c2cc(-c3ccccc3)n[nH]2)SC1 | inactive: -9.56% | 
CC(=O)N1CCC2(CC1)CC(=O)c1cc(OCC(=O)NCc3ccc(C)cc3)ccc1O2 | inactive: 6.13% | 
Cn1c(SCC(=O)NCc2ccco2)nc2ccccc2c1=O |  | inconclusive [activator, partial curve, poor fit]
S=c1[nH]ncn1-c1ccccn1 |  | inconclusive [activator, single point]
CCOc1ccc(C(=O)CSc2nnc3ccccn23)cc1 |  | inconclusive [activator, full curve, poor fit]
COCCNS(=O)(=O)c1ccc(-c2ccc(S(=O)(=O)NCCOC)cc2)cc1 |  | inconclusive [activator, partial curve, poor fit]
CN(C)S(=O)(=O)Oc1cccc(C(=O)Nc2ccccc2Cl)c1 |  | inconclusive [activator, partial curve, poor fit]
O=C(c1ccc2oc(CCc3ccccc3)nc2c1)N1CCC(O)CC1 |  | inconclusive [activator, full curve, poor fit]
COc1cccc(-c2nc(CS(=O)(=O)CC(=O)NC3CCCCCC3)c(C)o2)c1 | inactive: -2.59% | 
O=C1/C(=C/c2cccs2)Sc2ccccc21 |  | inconclusive [activator, partial curve]
C=CCNC1=C(Cl)C(=O)N(c2cccc(Cl)c2Cl)C1=O |  | inconclusive [activator, full curve, poor fit]
O=C(COC(=O)/C=C/c1ccccc1)NC1CC1 |  | inconclusive [activator, full curve, poor fit]
Cc1cccc(NC(=S)Nc2cccc3ccccc23)c1 | inactive: 6.76% | 
C=CCn1c(C)cc(C(=O)COC(=O)COc2ccccc2C#N)c1C |  | inconclusive [activator, single point]
CCn1cc(C(=O)N2CCN(C(=O)c3ccco3)CC2)c2cc(OC)c(OC)cc2c1=O |  | inconclusive [activator, partial curve, poor fit]
O=C(N/N=C/c1cccnc1)c1ccccc1Br |  | inconclusive [activator, single point]
CCNC(=O)COc1ccc(CC)cc1 |  | inconclusive [activator, partial curve, poor fit]
O=C(CSCc1ccccc1Cl)Nc1ccc2c(c1)OCCO2 |  | inconclusive [activator, full curve, poor fit]

Compound | activity change, positive = activation | Potency
CCN(CC)c1ccc(/C=N/NC(=O)Nc2ccccc2)cc1 |  | inconclusive [activator, partial curve, poor fit]
CCc1ccc(C(=O)COC(=O)c2n[nH]c3ccccc23)cc1 |  | inconclusive [activator, partial curve, poor fit]
Cc1cc(N=NC(=O)c2ccccc2O)c2ccccc2c1O |  | inconclusive [activator, partial curve, poor fit]
CCN1CCN(Cc2ccc(NC(=O)Nc3ccc(SC)cc3)cc2)CC1 |  | inconclusive [activator, partial curve, poor fit]
O=C(Nc1ccccc1Cl)c1ccccc1Cl | inactive: -8.84% | 
COc1ccccc1-c1ccc(NC2CCCCC2)nn1 |  | inconclusive [activator, partial curve, poor fit]
Cc1cccc(C)c1CC(=O)N1CCOCC1 |  | inconclusive [activator, single point]
COCCCN(C(C)=O)c1nc(-c2ccc(OC)cc2)cs1 |  | inconclusive [activator, partial curve, poor fit]
COc1ccccc1N(CC(=O)NCC1CCCO1)C(=O)CNS(=O)(=O)c1ccc(Cl)cc1 (configuration not stated) | inactive: 10.9% | 
c1ccn2cc(CSc3nnc4ccccn34)nc2c1 |  | inconclusive [activator, full curve, poor fit]
CCN(CC)S(=O)(=O)c1ccc(NC(=O)c2ccc(N3CCCC3=O)cc2)cc1 | inactive: -3.49% | 
Cc1c(Cl)cccc1N=c1c([N+](=O)[O-])nn(-c2ccccc2)n1O |  | inconclusive [activator, partial curve, poor fit]
C/C(=N\NC(=O)c1ccccc1)c1ccccc1Br |  | inconclusive [activator, partial curve, poor fit]
Cc1ccc(CNC(=O)Nc2cccs2)cc1 |  | inconclusive [activator, partial curve, poor fit]
Cc1cc(NC(=O)c2ccc([N+](=O)[O-])cc2Cl)no1 |  | inconclusive [activator, full curve, poor fit]
O=S(=O)(NCC(c1cccnc1)N1CCOCC1)c1cccs1 (configuration not stated) | inactive: -7% | 
O=S(=O)(CCOc1ccccc1)N1CCOCC1 |  | inconclusive [activator, partial curve, poor fit]
CCc1nonc1NC(=O)c1oc2ccc(C)cc2c1C |  | inconclusive [activator, partial curve, poor fit]
O=C(Cc1ccc(O)cc1)NC1CCCCCC1 |  | inconclusive [activator, full curve, poor fit]
Brc1ccccc1/C=N/Nc1ccc2ccccc2n1 |  | inconclusive [activator, partial curve, poor fit]
Cc1ccc(/C(O)=C2\C(=O)C(=O)N(C)C2c2ccccc2[N+](=O)[O-])cc1 (configuration not stated) |  | inconclusive [activator, single point]
